According to article PMC6919601, “Identification of Plasmodium dipeptidyl aminopeptidase allosteric inhibitors by high throughput screening” (PLoS ONE, 2019):
The whole screen tested about 110,000 compounds, of which about 230 (0.21%) showed an effect of 50% or more. Some of the results follow.

target: DPAP1 (Plasmodium falciparum, UniProt Q8IIJ9); test: primary screen, percent inhibition; read by cleavage of a fluorogenic dipeptide substrate; higher = more effect of the substance; design: species or system P. falciparum D10 trophozoite lysates; single well
Sequence (Q8IIJ9 whole entry, looked up): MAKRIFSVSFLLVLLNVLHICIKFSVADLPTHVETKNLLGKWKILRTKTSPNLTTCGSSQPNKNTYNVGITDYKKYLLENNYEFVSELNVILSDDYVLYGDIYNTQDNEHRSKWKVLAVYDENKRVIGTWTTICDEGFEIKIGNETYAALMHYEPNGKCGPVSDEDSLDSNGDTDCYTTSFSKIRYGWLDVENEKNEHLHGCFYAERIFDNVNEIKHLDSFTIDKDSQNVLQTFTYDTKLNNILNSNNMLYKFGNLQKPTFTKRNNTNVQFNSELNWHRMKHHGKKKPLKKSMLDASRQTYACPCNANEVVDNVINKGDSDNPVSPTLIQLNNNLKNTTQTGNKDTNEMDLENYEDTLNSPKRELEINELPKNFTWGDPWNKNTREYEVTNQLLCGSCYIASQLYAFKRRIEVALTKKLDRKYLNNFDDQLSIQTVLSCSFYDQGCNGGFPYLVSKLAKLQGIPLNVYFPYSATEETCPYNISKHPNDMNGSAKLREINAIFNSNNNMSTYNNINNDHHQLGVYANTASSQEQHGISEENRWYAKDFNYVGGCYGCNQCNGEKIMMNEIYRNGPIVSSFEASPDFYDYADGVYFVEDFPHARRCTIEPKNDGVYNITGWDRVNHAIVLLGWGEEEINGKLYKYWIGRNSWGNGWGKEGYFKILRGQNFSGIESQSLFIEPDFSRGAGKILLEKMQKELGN
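Further: 30 min substrate incubation versus DMSO and 10 µM JCP410 controls.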

| SMILES | % Inhibition @ 10 uM [%] |
| --- | --- |
| CC(C)CN(CC(C)C)C(=O)CN(C)S(=O)(=O)c1cccc2nsnc12 | 3.63 |
| CCc1ccc(N(CC(=O)Nc2ccccc2C(C)C)S(C)(=O)=O)cc1 | 6.24 |
| Cc1ccc(S(=O)(=O)NCCC(=O)NCc2ccccc2)cc1 | -1.99 |
| COc1ccc(-c2cn3nc(N4CCC(C(=O)N5CCc6ccccc6C5)CC4)sc3n2)cc1 | -2.77 |
| CC1CCN(S(=O)(=O)c2ccc(S(=O)(=O)N3CCN(CCC#N)CC3)cc2)CC1 | 1.62 |
| CCOc1ccc2nc(NC(=O)C(CC)CC)sc2c1 | 5.25 |
| Cc1nc(Cl)sc1C(=O)Nc1ccc(C(C)(C)C)cc1 | 2.64 |
| CN(Cc1cc2ccccc2nc1O)S(=O)(=O)c1ccccc1 | 1 |
| O=C(NC1CCc2ccccc21)c1nnc(O)c2ccccc12 (stereo not drawn) | -1.07 |
| CCN(CC)c1ccc(C2NCC(c3ccc([N+](=O)[O-])cc3)O2)cc1 (stereo not drawn) | -2.35 |
| CCOC(=O)N1CCN(C(=O)CN(c2cc(C)cc(C)c2)S(=O)(=O)c2ccc(C)cc2)CC1 | 0.408 |
| O=C1c2ccccc2-c2nc3cc(Cl)c(Cl)cc3nc21 | 11.8 |
| Cc1ccc(-c2noc(CSc3nc(C)cc(C)n3)n2)cc1 | -5.81 |
| Cc1ccccc1NC(=O)C(C)(C)NC(=O)c1cccc(N2C(=O)CSC2c2ccccc2)c1 (stereo not drawn) | -1.36 |
| O=C(CSc1nc2cc(Cl)ccc2s1)NCc1ccccc1 | -6.84 |
| Cc1cc(C(=O)O)c(NC(=O)c2cccc(Cl)c2)s1 | 1.39 |
| O=C(COc1ccc(Br)cc1)NCCc1ccccc1 | -11.1 |
| Cc1cccc(C)c1NC(=O)C(C)Oc1ccccc1 (stereo not drawn) | 2.24 |
| COCCO/C(O)=C1\C(C)=NC2=C(C(=O)CCC2)C1c1ccccc1Cl (stereo not drawn) | 3.82 |
| CC[n+]1ccccc1/C=C1\C=Cc2cc(C)ccc2N1C | -3.19 |
| Nc1ccc(NS(=O)(=O)c2ccc(N)cc2)cc1 | 3.47 |
| C/C(Cl)=C\Cn1c(=O)c2c(nc(Br)n2Cc2ccccc2)n(C)c1=O | -4.33 |
| O=C(Nc1ccc2[nH]c3c(c2c1)CCCC3)c1ccc(F)cc1 | -3.41 |
| O=C(CN1N=C(c2ccccc2)CCC1=O)NCCN1CCOCC1 | 0.514 |
| Cc1ccn2c(=O)c(C(=O)NCc3ccc(Cl)cc3)cnc2c1 | 0.0579 |

| SMILES | % Inhibition @ 10 uM [%] |
| --- | --- |
| COc1ccc2cc3cc(C(=O)NCCN4CCc5ccccc5C4)sc3nc2c1 | 4.61 |
| O=C(CCC1CCCCC1)N[C@@H](CCc1ccccc1)C(=O)c1nc2ccccc2o1 | -5.21 |
| COc1cc(CNCCO)cc(Cl)c1OCc1ccc(F)cc1 | 0.189 |
| CCOc1ccc(NC(=O)C2=C(C)NC(=O)NC2c2cccc(Br)c2)cc1 (stereo not drawn) | 4.75 |
| Cc1cccc(NC(=O)C(F)(OC(F)(F)C(F)(F)C(F)(F)F)C(F)(F)F)n1 (stereo not drawn) | 5.98 |
| Cn1nnnc1SCCCNCc1c(F)cccc1Cl | 0.596 |
| CCOc1ccccc1N1CCN(C(=O)/C=C/c2ccc(F)cc2)CC1 | -1.66 |
| CCC1CCc2c(sc(NC(=O)Nc3ccc(Cl)c(Cl)c3)c2C(N)=O)C1 (stereo not drawn) | 2.72 |
| COC(=O)c1ccc(-c2cc(C(=O)O)c3c(-c4ccc(C)cc4)[nH]nc3n2)cc1 | -0.0401 |
| COc1ccc(C2CC(=O)C3=C(C2)NC(=O)CC3c2cc(Br)c(O)c(OC)c2)cc1 (stereo not drawn) | 5.86 |
| COCCNC(C)Cc1ccc(F)cc1 (stereo not drawn) | 1.57 |
| Oc1cccc(CN2CC=C(c3ccc(F)cc3)CC2)c1 | -7.18 |
| N#Cc1ccc(Cn2c(-c3cncs3)nc3ccccc32)cc1 | -3.39 |
| COc1cc(CCNc2ccc3nnc(-c4ccccc4)n3n2)cc(OC)c1OC | -3.08 |
| CC(=O)Nc1ccc(NC(=O)c2sc3cc(C)ccc3c2Cl)cc1 | -4.49 |
| O=C(O)CCC(=O)n1ncc2c(Cl)cccc21 | -1.7 |
| COC(C)(C)/C=C(\N)C(=O)c1ccccc1 | 3.05 |
| O=C(Nc1nccs1)c1cccc(F)c1 | -0.48 |
| CC1=C(C(=O)Nc2ccccc2)C(c2ccc(Cl)cc2)n2ncnc2N1 (stereo not drawn) | -6.83 |
| O=C1C2C(c3ccccc3)OC3(C(=O)c4ccccc4C3=O)C2C(=O)N1c1ccc(C(F)(F)F)cc1 (stereo not drawn) | 5.32 |
| COc1cc(CN2CCN(C(=O)c3cccnc3)CC2)cc(OC)c1OC | 3.95 |
| CC1(C)CC(=O)C2=C(C1)OC(N)=C(C#N)C2c1ccc(Cl)cc1Cl (stereo not drawn) | -0.128 |
| O=C(Cn1ncc2c3ccccc3n(Cc3ccccc3F)c2c1=O)N1CCN(c2ccccn2)CC1 | 4.95 |
| Cc1oc2ncnc(NCCc3ccc(Cl)cc3)c2c1C(=O)O | -3.95 |
| N#Cc1cc2c(nc1SCC(=O)Nc1nc3ccccc3s1)CCC2 | 2.09 |

| SMILES | % Inhibition @ 10 uM [%] |
| --- | --- |
| N#CC1=C(N)Oc2[nH]nc(-c3ccncc3)c2C1c1ccsc1 (stereo not drawn) | -8.56 |
| O=C(Nc1ccncc1)c1cc(-c2ccc(Cl)cc2)nc2ccccc12 | -1.89 |
| Cc1onc(-c2ccccc2Cl)c1C(=O)N1CCN(Cc2ccccc2)CC1 | -5.81 |
| COc1ccc(C2C(C(=O)N3CCN(Cc4ccccc4)CC3)c3ccccc3C(=O)N2C)cc1 (stereo not drawn) | -2.04 |
| CCCN1C(=O)c2[nH]nc(-c3ccccc3)c2C1c1ccccn1 (stereo not drawn) | -1.07 |
| CCOc1ccc(/C=c2/sc3nc(=O)c(C)nn3c2=O)cc1OCC | 0.222 |
| Cc1nc2sccn2c(=O)c1S(=O)(=O)NCc1ccccn1 | -4.04 |
| O=C(COc1cccc(Cl)c1)Nc1nc(-c2ccc(F)cc2)cs1 | -1.44 |
| COc1ccc(S(=O)(=O)N2CCN(C/C=C/c3ccccc3)CC2)cc1C | -1.84 |
| COc1ccc2[nH]cc(CCNC(=O)NC34C[C@H]5C[C@@H](C3)C[C@@H](C4)C5)c2c1 | 3.36 |
| CS(=O)(=O)N(CC(=O)NC1CCCCC1)c1cc(Cl)cc(Cl)c1 | -1.37 |
| CCCOc1cccc(C(=O)N(Cc2ccc(CC)cc2)C2CCS(=O)(=O)C2)c1 (stereo not drawn) | 3.72 |
| CCOC(=O)N1CCC2(CC1)OC(=O)C(C)=C2C(=O)NCc1ccc(OC)cc1 | -1.07 |
| Cc1cc(N2CCOCC2)c2c(N)ccc(C)c2n1 | -2.97 |
| Cc1nnc(NC(=O)CSc2nnc(Cc3cc(O)nc(O)n3)n2-c2ccc(F)cc2)s1 | -11 |
| NCC12CC3CC(CC(O)(C3)C1)C2 | -0.239 |
| O=C(Nc1c(O)c2ccccc2oc1=O)c1sc2ccccc2c1Cl | -2.3 |
| CC(C)(C)Nc1nc(Cl)nc(NCCO)n1 | 3.9 |
| CC/N=C1\S/C(=C\c2ccc(N(CC)CC)cc2)C(=O)N1CC | 0.189 |
| CCOc1ccc(CCNC(=O)c2sc(-n3cccc3)nc2C)cc1OCC | -2.37 |
| CCCC[C@H](NC(=O)[C@H](CC(C)C)NC(=O)OCc1ccccc1)C(=O)CS(=O)(=O)N1CCCC1 | -1.82 |
| CC(C)OCCCn1c(SCc2ccccc2Cl)nc2nccnc2c1=O | -6.65 |
| CC1CCCC(C)N1C(=O)Cn1ncc2c3ccccc3n(Cc3ccccc3F)c2c1=O (stereo not drawn) | 6.46 |
| O=C(NCCN1CCOCC1)c1cc(-c2ccc(O)cc2)on1 | -1.28 |
| CC(C)Sc1ncc(Cl)c(C(=O)NCc2ccccc2)n1 | 2.41 |

| SMILES | % Inhibition @ 10 uM [%] |
| --- | --- |
| Cc1ccc(NC(=O)CC2SC(Nc3ccc(C)cc3)=NC2=O)cc1 (stereo not drawn) | -1.95 |
| Cc1ccc(C2C=C(c3ccc(Br)cc3)Nc3nnnn32)c(C)c1 (stereo not drawn) | -11.1 |
| O=C(/C=C\Nc1ccc2c(c1)OCO2)c1ccc(Cl)s1 | -0.413 |
| CC1=CC(=C2C(=O)NC(=O)NC2=O)C=C(C)N1c1ccc(C(=O)O)cc1 | 7.02 |
| CCN1CCN(C(=O)c2ccc(CS(=O)(=O)Cc3ccccc3Cl)o2)CC1 | -1.79 |
| O=C(NCCCN1CCCC1=O)c1ccc(-n2c(-c3ccccc3)cc3c2CCCC3)cc1 | 2.31 |
| CC(C)C[C@H](NC(=O)c1ccc(-c2cc(C(=O)O)sc2Cl)cc1)C(=O)NCC#N | -5.2 |
| CCc1c(C)nc2c(C)cccc2c1Cl | -8.72 |
| Cc1ccc(CN(Cc2ccco2)C(=S)NCC(=O)NC2CCC(C)CC2)cc1 (stereo not drawn) | 2.9 |
| O=S(=O)(c1ccc(Cl)cc1)c1cnc2ccccc2c1N1CCCCC1 | -10.2 |
| O=c1c2nnn(Cc3ccc(F)cc3)c2ncn1Cc1ccccc1Cl | -4.17 |
| CCOc1ccccc1CNC(=O)c1cc2c(=O)n(Cc3cccs3)ccc2nc1C | -0.12 |
| C=CCN(CC=C)Cc1c(O)ccc2oc(C)c(C(=O)NCc3ccccc3)c12 | -6.72 |
| CCn1cc(C(C)NC(=O)c2cc(-c3cccc(C)c3)nc3ccccc23)c(C)n1 (stereo not drawn) | -4.84 |
| O=c1ccccn1Cc1ccccc1F | -1.52 |
| CCCCNC(=S)NC12CC3CC(CC(C3)C1)C2 | -0.415 |
| COc1ccccc1NC(=O)c1ccccc1NC(=O)c1ccccc1C(=O)O | -9.82 |
| CC(NC(=O)C(Cc1ccccc1)n1cccc1)c1ccccc1 (stereo not drawn) | -0.692 |
| O=C(Cc1ccccc1)N1CCN(Cc2ccc(F)cc2)CC1 | -7.14 |
| CC1=NN(C(=O)COc2ccc(Cl)c(Cl)c2)C(O)(C(F)(F)F)C1 (stereo not drawn) | -5.34 |
| CCOc1ccc(N2C(=O)CC(NC3CCCCCCC3)C2=O)cc1 (stereo not drawn) | 6.48 |
| N=C1/C(=C\c2ccc(SCc3ccco3)o2)C(=O)N=C2SC(N3CCCC3)=NN12 | 15.7 |
| CCOC(=O)CNC(=O)NC(C)c1ccccc1 (stereo not drawn) | -4.35 |
| COc1ccccc1CNC(=O)C(CC1CCCCC1)C(=O)NCC#N (stereo not drawn) | -11 |
